# Test results reported in the supplement of paper PMC8728848.
# The list shows a part of the results.
# B1: OrfX (Escherichia coli), Q9X4B6_ECOLX (protein)
# chain: MIKIARIAVTLGLLSSLGAQAYAAGLVVNDNDLRNDLAWLSDRGVIHLSLSTWPLSQEEIARALKKAKPSYSSEQVVLARINQRLSALKADFRVTGYTSTDQPGTPQGFGQTQPADNSLGLAFNNSGEWWDVHLQGNVEGGERISNGSRFNANGAYGAVKFWNQWLSFGQVPQWWGPGYEGSLIRGDAMRPMTGFLMQRAEQAAPETWWLRWVGPWQYQISASQMNQYTAVPHAKIIGGRFTFTPFQSLELGASRIMQWGGEGRPQSFSSFWDGFTGHDNTGTDNEPGNQLAGFDFKFKLEPTLGWPVSFYGQMVGEDESGYLPSANMFLGGVEGHHGWGKDTVNWYVEAHDTRTNMSRTNYSYTHHIYKDGYYQQGYPLGDAMGGDGQLIAGKVELITEDNQRWSTRLVYAKVNPENQSINKAFPHADTLKGLQLGWSGDVYQSVRLNTSLWYTNANNSDSDDVGASAGIEIPFSL
# Legend:
# Assay in all cases: glycan array binding signal (z-score within array); higher = stronger binding
# Conditions in all cases: glycan notation: IUPAC condensed, linker removed
# [1] = biological target: GlcNAc(b1-3)Gal(b1-3)GalNAc
# Method in brief: (§1)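 Glycan array binding is given as a within-array Z-score, which can be read as non-binding when negative. The arrays, 3228 of them, came from the Consortium for Functional Glycomics database and were retained only where the protein sequence was available. Z-scores were averaged across arrays of the same protein sequence at different concentrations or buffers and across linkers.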
# GlcNAc(b1-3)Gal(b1-4)Glc = biological target: GlcNAc(b1-3)Gal(b1-4)Glc
# Method in brief: as §1
# [2] = biological target: GlcNAc(b1-3)Gal(b1-4)GlcNAc
# Method in brief: as §1
# [3] = biological target: GlcNAc(b1-3)Gal(b1-4)GlcNAc(b1-3)Gal(b1-4)GlcNAc
# Method in brief: as §1
# GlcNAc(b1-3)GalNAc = biological target: GlcNAc(b1-3)GalNAc
# Method in brief: as §1
# GlcNAc(b1-3)Man = biological target: GlcNAc(b1-3)Man
# Method in brief: as §1
# [4] = biological target: GlcNAc(b1-3)[GlcNAc(b1-4)][GlcNAc(b1-6)]GlcNAc
# Method in brief: as §1
# [5] = biological target: GlcNAc(b1-3)[GlcNAc(b1-6)]Gal(b1-4)GlcNAc
# Method in brief: as §1
# [6] = biological target: GlcNAc(b1-3)[GlcNAc(b1-6)]GalNAc
# Method in brief: as §1
# [7] = biological target: GlcNAc(b1-4)Gal(b1-4)GlcNAc
# Method in brief: as §1
# GlcNAc(b1-4)GlcNAc = biological target: GlcNAc(b1-4)GlcNAc
# Method in brief: as §1
# [8] = biological target: GlcNAc(b1-4)GlcNAc(b1-4)GlcNAc
# Method in brief: as §1
# [9] = biological target: GlcNAc(b1-4)GlcNAc(b1-4)GlcNAc(b1-4)GlcNAc(b1-4)GlcNAc
# Method in brief: as §1
# [10] = biological target: GlcNAc(b1-4)GlcNAc(b1-4)GlcNAc(b1-4)GlcNAc(b1-4)GlcNAc(b1-4)GlcNAc
# Method in brief: as §1
# [11] = biological target: GlcNAc(b1-4)[GlcNAc(b1-6)]GalNAc
# Method in brief: as §1
# [12] = biological target: GlcNAc(b1-6)Gal(b1-4)GlcNAc
# Method in brief: as §1
# GlcNAc(b1-6)GalNAc = biological target: GlcNAc(b1-6)GalNAc
# Method in brief: as §1
# GlcNAc3Prop(b1-4)GlcNAc = biological target: GlcNAc3Prop(b1-4)GlcNAc
# Method in brief: as §1
# [13] = biological target: GlcNAc6S(b1-3)Gal(b1-4)GlcNAc
# Method in brief: as §1
# Kdn(a2-3)Gal(b1-3)GalNAc = biological target: Kdn(a2-3)Gal(b1-3)GalNAc
# Method in brief: as §1
# Kdn(a2-3)Gal(b1-3)GlcNAc = biological target: Kdn(a2-3)Gal(b1-3)GlcNAc
# Method in brief: as §1
# Kdn(a2-3)Gal(b1-4)Glc = biological target: Kdn(a2-3)Gal(b1-4)Glc
# Method in brief: as §1
# Kdn(a2-3)Gal(b1-4)GlcNAc = biological target: Kdn(a2-3)Gal(b1-4)GlcNAc
# Method in brief: as §1
# [14] = biological target: Kdn(a2-3)Gal(b1-4)[Fuc(a1-3)]GlcNAc
# Method in brief: as §1
# Kdn(a2-6)Gal(b1-4)GlcNAc = biological target: Kdn(a2-6)Gal(b1-4)GlcNAc
# Method in brief: as §1
# [15] = biological target: Man(a1-2)Man(a1-2)Man(a1-3)Man
# Method in brief: as §1
# [16] = biological target: Man(a1-2)Man(a1-2)Man(a1-6)[Man(a1-3)]Man
# Method in brief: as §1
# Man(a1-2)Man(a1-3)Man = biological target: Man(a1-2)Man(a1-3)Man
# Method in brief: as §1
# [17] = biological target: Man(a1-2)Man(a1-3)[Man(a1-2)Man(a1-6)]Man
# Method in brief: as §1
# [18] = biological target: Man(a1-2)Man(a1-3)[Man(a1-2)Man(a1-6)]Man(a1-6)[Man(a1-2)Man(a1-2)Man(a1-3)]Man
# Method in brief: as §1
# [19] = biological target: Man(a1-2)Man(a1-3)[Man(a1-2)Man(a1-6)]Man(a1-6)[Man(a1-2)Man(a1-2)Man(a1-3)]Man(b1-4)GlcNAc(b1-4)GlcNAc
# Method in brief: as §1
# [20] = biological target: Man(a1-2)Man(a1-3)[Man(a1-6)]Man(a1-6)[Man(a1-2)Man(a1-3)]Man(b1-4)GlcNAc(b1-4)GlcNAc
# Method in brief: as §1
# [21] = biological target: Man(a1-2)Man(a1-6)[Man(a1-3)]Man(a1-6)[Man(a1-2)Man(a1-2)Man(a1-3)]Man
# Method in brief: as §1
# [22] = biological target: Man(a1-2)Man(a1-6)[Man(a1-3)]Man(a1-6)[Man(a1-2)Man(a1-2)Man(a1-3)]Man(b1-4)GlcNAc(b1-4)GlcNAc
# Method in brief: as §1
# Man(a1-3)[Man(a1-6)]Man = biological target: Man(a1-3)[Man(a1-6)]Man
# Method in brief: as §1
# [23] = biological target: Man(a1-3)[Man(a1-6)]Man(a1-6)[Man(a1-2)Man(a1-3)]Man(b1-4)GlcNAc(b1-4)GlcNAc
# Method in brief: as §1
binder,measurement,setting,value
B1,glycan array binding signal (z-score),[1],-0.228
same,glycan array binding signal (z-score),GlcNAc(b1-3)Gal(b1-4)Glc,-0.011
same,glycan array binding signal (z-score),[2],-0.164
same,glycan array binding signal (z-score),[3],0.096
same,glycan array binding signal (z-score),GlcNAc(b1-3)GalNAc,-0.23
same,glycan array binding signal (z-score),GlcNAc(b1-3)Man,-0.141
same,glycan array binding signal (z-score),[4],11.2
same,glycan array binding signal (z-score),[5],-0.291
same,glycan array binding signal (z-score),[6],-0.261
same,glycan array binding signal (z-score),[7],-0.33
same,glycan array binding signal (z-score),GlcNAc(b1-4)GlcNAc,-0.182
same,glycan array binding signal (z-score),[8],-0.182
same,glycan array binding signal (z-score),[9],-0.176
same,glycan array binding signal (z-score),[10],-0.269
same,glycan array binding signal (z-score),[11],-0.118
same,glycan array binding signal (z-score),[12],-0.167
same,glycan array binding signal (z-score),GlcNAc(b1-6)GalNAc,-0.055
same,glycan array binding signal (z-score),GlcNAc3Prop(b1-4)GlcNAc,-0.301
same,glycan array binding signal (z-score),[13],-0.199
same,glycan array binding signal (z-score),Kdn(a2-3)Gal(b1-3)GalNAc,-0.206
same,glycan array binding signal (z-score),Kdn(a2-3)Gal(b1-3)GlcNAc,-0.349
same,glycan array binding signal (z-score),Kdn(a2-3)Gal(b1-4)Glc,-0.109
same,glycan array binding signal (z-score),Kdn(a2-3)Gal(b1-4)GlcNAc,-0.244
same,glycan array binding signal (z-score),[14],0.343
same,glycan array binding signal (z-score),Kdn(a2-6)Gal(b1-4)GlcNAc,-0.244
same,glycan array binding signal (z-score),[15],-0.428
same,glycan array binding signal (z-score),[16],-0.231
same,glycan array binding signal (z-score),Man(a1-2)Man(a1-3)Man,-0.197
same,glycan array binding signal (z-score),[17],-0.169
same,glycan array binding signal (z-score),[18],-0.259
same,glycan array binding signal (z-score),[19],-0.124
same,glycan array binding signal (z-score),[20],0.416
same,glycan array binding signal (z-score),[21],-0.371
same,glycan array binding signal (z-score),[22],-0.132
same,glycan array binding signal (z-score),Man(a1-3)[Man(a1-6)]Man,-0.197
same,glycan array binding signal (z-score),[23],-0.361
